# In article PMC4336329 (PLoS ONE, 2015):
# In all, about 310,000 compounds went through this assay and about 2,200 (0.71%) showed an effect of 50% or more. Effects have a minus sign here. The list shows a part of the results.
# Target: human ether-à-go-go-related gene (hERG) potassium channel (human, UniProt Q12809)
# Assay: primary screen, population patch clamp on CHO cells stably expressing hERG
# Chain of human ether-à-go-go-related gene (hERG) potassium channel (Q12809 whole entry, looked up): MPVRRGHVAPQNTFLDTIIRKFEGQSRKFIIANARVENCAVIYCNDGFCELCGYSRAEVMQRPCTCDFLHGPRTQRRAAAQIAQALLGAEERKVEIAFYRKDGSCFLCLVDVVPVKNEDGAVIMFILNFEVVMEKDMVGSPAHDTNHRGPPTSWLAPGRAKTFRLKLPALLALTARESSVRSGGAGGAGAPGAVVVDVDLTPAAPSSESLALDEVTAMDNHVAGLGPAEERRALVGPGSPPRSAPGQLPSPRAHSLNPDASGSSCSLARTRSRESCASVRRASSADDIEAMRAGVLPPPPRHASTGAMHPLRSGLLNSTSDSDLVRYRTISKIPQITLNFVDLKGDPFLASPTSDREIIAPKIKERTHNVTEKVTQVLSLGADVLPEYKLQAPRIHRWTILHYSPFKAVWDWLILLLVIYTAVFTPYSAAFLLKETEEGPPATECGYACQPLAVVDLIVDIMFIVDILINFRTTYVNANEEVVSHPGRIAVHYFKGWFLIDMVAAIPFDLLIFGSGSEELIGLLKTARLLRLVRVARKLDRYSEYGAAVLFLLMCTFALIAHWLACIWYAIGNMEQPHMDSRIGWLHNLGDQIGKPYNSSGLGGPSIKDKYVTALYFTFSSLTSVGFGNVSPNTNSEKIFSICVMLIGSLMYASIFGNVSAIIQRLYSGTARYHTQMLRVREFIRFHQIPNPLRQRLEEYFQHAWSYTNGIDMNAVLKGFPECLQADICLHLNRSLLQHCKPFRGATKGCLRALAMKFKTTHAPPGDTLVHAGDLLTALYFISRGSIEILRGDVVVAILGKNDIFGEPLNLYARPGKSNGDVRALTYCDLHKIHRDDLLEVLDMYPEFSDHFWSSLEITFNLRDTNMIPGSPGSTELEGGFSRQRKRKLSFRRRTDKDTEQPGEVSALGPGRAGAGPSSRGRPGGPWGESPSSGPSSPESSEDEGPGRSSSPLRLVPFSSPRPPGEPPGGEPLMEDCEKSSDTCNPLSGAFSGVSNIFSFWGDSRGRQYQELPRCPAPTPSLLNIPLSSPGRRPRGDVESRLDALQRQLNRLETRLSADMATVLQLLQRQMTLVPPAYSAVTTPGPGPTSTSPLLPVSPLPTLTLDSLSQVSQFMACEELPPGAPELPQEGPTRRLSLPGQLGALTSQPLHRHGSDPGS
row,Structure (SMILES),"hERG current change (%, negative = inhibition) at 1uM [%]"
1,Cc1c(OCC(=O)N[C@@H](Cc2ccccc2)C(=O)O)ccc2c1oc(=O)c1ccccc12,-7.6
2,O=S(=O)(c1cc(Cl)cc(Cl)c1O)N1CCC2(CC1)OCCO2,9.3
3,CCc1ccc(NC(=S)N2CCC(NC(=O)c3ccccc3)CC2)cc1,5.15
4,O=C(CNC(=O)c1cccs1)NCC(=O)OCc1c(F)cccc1Cl,13.6
5,Clc1ccccc1-c1nnc2sc(-c3cccs3)nn12,3.6
6,COc1cc(/C=N/NC(=O)c2cccc(S(=O)(=O)N3CCCC3)c2)ccc1O,2.16
7,O=c1[nH]nc(N/N=C/c2ccc(Cl)cc2Cl)c(=O)[nH]1,7.03
8,COC(=O)CS(=O)(=O)c1ccsc1C(=O)Nc1ccc(F)cc1,11.8
9,O=C(Nc1ncccc1O)c1cccc(S(=O)(=O)N2CCCC2)c1,5.92
10,Cc1c(CCC(=O)O)c(=O)oc2cc(OCc3cccc(Cl)c3)ccc12,14.5
11,Nc1ccc(C(=O)[O-])cc1.O.[Na+],8.37
12,CC#CC(=O)N1CCC(C(=O)Nc2ccc(Oc3ccccc3)nc2)CC1,11.4
13,OC(CN1CCN(C(c2ccccc2)c2ccccc2)CC1)c1ccccc1 (stereo not drawn),2.45
14,CCC(C)(C)NC(=O)C(c1ccco1)N(C(=O)c1csnn1)c1cccc(F)c1 (stereo not drawn),2.6
15,Cc1ccc(CN(c2ccc(C(=O)NCc3cccnc3)cc2)S(C)(=O)=O)cc1,1.51
16,CCCn1c2ccccc2c2nc3ccccc3nc21,15.5
17,CSc1ncccc1C(=O)OCC(=O)c1cccs1,9.58
18,CCCc1nnc(-c2cc(OC)c(OC)c(OC)c2)o1,12
19,CSc1nsc(/C=C/Nc2ccc(F)cc2)c1C#N,14.7
20,Cc1ccc(NC(=O)COc2ccccc2CNC(C)(C)CC(C)(C)C)cc1,-4.81
21,COc1ccc(C(=O)Cn2nnc(-c3ccccc3NC(=O)C(F)(F)F)n2)cc1,7.68
22,COc1ccc2nc(NC(=O)CSc3nnc(C)n3N)sc2c1,9.34
23,COc1ccc(N=C2SC(C(=O)N3CCN(c4ccc([N+](=O)[O-])cc4)CC3)CC(=O)N2C)cc1 (stereo not drawn),-22.4

row,Structure (SMILES),"hERG current change (%, negative = inhibition) at 1uM [%]"
1,CC(Oc1ccc(Cl)cc1)c1ccnn1S(C)(=O)=O (stereo not drawn),10.5
2,CSc1ccc(Cl)c(C(=O)NNC(=O)c2csc(N3CCOCC3)n2)c1,11.5
3,Cc1nc(-c2ccc(S(=O)(=O)N3CCN(c4ccccc4)CC3)cc2)co1,14.5
4,Cc1nonc1OCCN1CCN(c2ccc([N+](=O)[O-])cc2)CC1,-100
5,Nn1cnc2c(c1=O)C1(CCCCC1)Cc1ccccc1-2,2.28
6,COc1ccccc1NC(=O)CNC(=O)c1ccc(Br)o1,15
7,CSCc1ccc(C(=O)Nc2cc(C)cc(C)c2)cc1,7.3
8,CCOCCCNS(=O)(=O)c1ccc2c(c1)OCCO2,-8.73
9,FC(F)(F)c1nc(N2CCCC2)ncc1-c1nnnn1-c1ccc(Cl)cc1,8.31
10,CCN(CC)c1ccc(CNc2nc3ccccc3n2C)cc1,-15.5
11,CCCn1c(N2CCOCC2)nc2c1c(=O)[nH]c(=O)n2C,1.18
12,CCOC(=O)Cc1nn(C)c(=O)c2ccccc12,11.2
13,Cl.O=C(NCCOC(=O)c1ccc(C(=O)OCCNC(=O)c2cccnc2)s1)c1cccnc1,9.64
14,CC(C)(C)N(Cc1ccccc1)C(=O)COC(=O)CNC(=O)c1ccco1,4.45
15,O=C(NC(=S)Nc1ccc([N+](=O)[O-])cc1O)C1CCCCC1,9.74
16,COc1ccc(NC(=O)c2ccc(F)cc2)cc1S(=O)(=O)Nc1cc(C)ccc1Br,3.82
17,CC1CCCCN1C(=S)Nc1ccc2nc3n(c(=O)c2c1)CCCCC3 (stereo not drawn),-27.4
18,O=C(CS(=O)(=O)Cc1ccccc1)NCC1CCCO1 (stereo not drawn),10.4
19,CCCCNC(=O)COC(=O)CNC(=O)c1cc(Cl)cc([N+](=O)[O-])c1,12.8
20,O=C(COc1coc(CN2CCc3ccccc3C2)cc1=O)Nc1ccc(F)cc1F,3.79
21,Cc1c(C(c2cccs2)c2c(C)n(C)n(-c3ccccc3)c2=O)c(=O)n(-c2ccccc2)n1C,17.6
22,O=C(CSc1nnc(NC(=O)c2ccccc2F)s1)Nc1ccccc1F,22.8
23,C=CCOC(=O)C(=O)/C=C/c1coc2ccccc2c1=O,9.67

row,Structure (SMILES),"hERG current change (%, negative = inhibition) at 1uM [%]"
1,O=C(CN1C(=O)CCSc2ccc(S(=O)(=O)N3CCCC3)cc21)Nc1ccccc1,9.81
2,O=C(/C=C/c1ccoc1)c1ccccc1O,3.71
3,COc1cc(C(=O)O)c2c(c1C)OC(=O)c1c(C)cc(O)c(C=O)c1O2,22.5
4,CCOc1ccccc1N(C)C(=O)c1sc2ncn(CC(=O)N3CCCCC3C)c(=O)c2c1C (stereo not drawn),7.39
5,Cn1c(Cl)c(/C=N/OC(=O)C(C)(C)C)c2ccccc21,8.34
6,O=C(Nc1ccncc1)Nc1cccc(F)c1,12.3
7,Nc1ccc(C#Cc2ccc3sc4ccccc4c(=O)c3c2)cc1,11.5
8,O=C(CN1C(=O)NC(Cc2c[nH]c3ccccc23)C1=O)Nc1ccc(F)c(F)c1F (stereo not drawn),1.82
9,CCOc1ccc(CN(C)CC(=O)NCc2ccccc2)cc1,-82.3
10,C/C(=N\N=C(N)N)c1ccc(C)c(C)c1,16
11,CC(=O)c1ccc(NC(=O)CCc2nc3sc4c(c3c(=O)[nH]2)CCCC4)cc1,11
12,CCOc1ccc(C(C)NC(=S)NC2CCCCC2)cc1 (stereo not drawn),-0.0905
13,CCc1ccccc1N(C(=O)CNC(=O)c1ccco1)C(C(=O)NC1CCCC1)c1cccnc1 (stereo not drawn),22.7
14,Cc1ccc2ccc3cccnc3c2n1,11.9
15,CCO/C=C1/C(=O)N(c2ccc(OC)cc2)C(=O)c2ccccc21,14.6
16,COc1cc(/C=C/C(=O)N2CCN(C(=O)/C=C/c3cc(OC)c(OC)c(OC)c3)CC2)cc(OC)c1OC,6.29
17,CCOC(=O)c1cnn(Cc2ccccc2)c1N,13.7
18,COc1cccc(C(=O)Nc2ccc(-c3nc4ccccc4o3)c(O)c2)c1,14
19,O=C(/C=C/c1ccccc1Cl)Nc1ccc(-c2nnc3n2CCCCC3)cc1,5.92
20,CCOc1ccc(-n2nnc3c(=O)n(C/C=C/c4ccccc4)cnc32)cc1,13
21,Cn1cnnc1SCC(=O)N1CCN(C(=O)c2ccco2)CC1,9.85
22,NC(=O)Cn1cc(C(=O)COc2ccccc2)c2ccccc21,12.4
23,COc1ccc(CNc2ncc(-c3ccc(F)cc3)n2C)c2ccccc12.O=C(O)C(=O)O,7.04

row,Structure (SMILES),"hERG current change (%, negative = inhibition) at 1uM [%]"
1,O=C(Nc1cccc(C(=O)O)c1)/C(=C\c1ccc2c(c1)OCO2)NC(=O)c1ccccc1,3.01
2,Oc1ccc(N=Nc2ccc3c(c2)OCCO3)c(O)c1,9.42
3,N#Cc1cccc(NC(=O)COC(=O)c2ccccc2Sc2ccccc2C#N)c1,9.28
4,CCN(CC(=O)Nc1ccc(OC)cc1)C(=O)CSCc1c(C)noc1C,4.8
5,O=C(Nc1ccccc1N1CCOCC1)c1ccc2ccccc2n1,12.4
6,Cc1ccccc1OCCSc1nnc(-c2cccnc2)n1N,13.7
7,CN(C)N=Nc1nc[nH]c1C(N)=O,7.82
8,COCCn1c(=NC(=O)CCS(=O)(=O)c2ccccc2)sc2cc(F)ccc21,3.85
9,O=C(c1ccccc1N(Cc1ccccc1)S(=O)(=O)c1ccccc1)N1CCOCC1,1.25
10,CC(/C=N/Nc1nc(N2CCCCC2)nc(N2CCCCC2)n1)=C\c1ccccc1,12.2
11,CC(C)CNC(=O)c1noc2c1CCCC2,11.1
12,Cc1ccc(OCC(=O)NNC(=O)C2CCN(c3ncccn3)CC2)cc1,3.85
13,CCOC(=O)c1c(S(=O)(=O)NCC(C)c2ccccc2)c(C)n(C)c1C (stereo not drawn),4.64
14,O=C(c1ccc(CN2CCc3ccccc3C2)cc1)N1CCCCC1,8.8
15,CCN1C(=O)CC(c2ccco2)Sc2ccccc21 (stereo not drawn),-0.834
16,CC(C)c1nnc(NC(=O)CC(=O)Nc2ccccc2C(=O)O)s1,8.36
17,O=C(/C=C/c1ccccc1[N+](=O)[O-])OCC(=O)c1ccccc1,3.23
18,CCOC(=O)C(CCC(=O)O)(CCC(C)C)c1csc(N)n1 (stereo not drawn),-6.1
19,Oc1c(C(c2ccccn2)N2CCC(Cc3ccccc3)CC2)cc(Cl)c2cccnc12 (stereo not drawn),8.8
20,CCOCCc1nnc(NC(=O)C(CC)c2ccccc2)s1 (stereo not drawn),9.75
21,COc1ccc(C2CCCN2C(=S)Nc2cccc(C)c2)cc1OC (stereo not drawn),5.51
